# Experimental data published in the supplement of paper PMC11417369.
# ± gives the standard deviation of the averaged measurements. This is one part of the list.
# Test system: PfAP2-I AP2 domain 3 (GST-tagged)
# Assay: gcPBM binding intensity (ln(normalized median fluorescence intensity)); higher = stronger DNA binding
# Outline: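 Using an Agilent 4 × 180k array, primer-extended double-stranded 36-bp intergenic genomic probes and negative controls were exposed for 1 h to GST-fused P. falciparum DNA-binding domains expressed in E. coli. Binding was carried out in 1× PBS with 1% milk, 0.2 mg/ml BSA, 0.5% salmon testes DNA and 0.03% Triton X-100, and protein was detected with Alexa488 anti-GST antibody and a 488 nm scan. Binding intensity is the highest Masliner-normalised natural-log median intensity across replicate spots of either probe orientation.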
row,Sequence,gcPBM binding intensity (ln)
1,ATAATATTATTTAAAAGTACTAACAAAAGAATATTA [XGTACX_site4989],7.78 ± 0.38
2,TCTTTTTTTTATTATATCATTGAAATGTTAAAACGA [XGTACX_negctrl_site473],7.67 ± 0.57
3,TTTTGATAGAAGTGTTCTAGGAATTCAACTGTAATA [GTGCAC_negctrl_site585],7.58 ± 0.76
4,TGAAAAAAAAAATACACACACGAGTTGTTATACATA [CACACA_site7486],7.44 ± 0.78
5,ATTAAAAAAATTGGCACACATAAAAATATATAAAAA [CACACA_site2748],8.21 ± 0.33
6,GTTTTTAATGTTTTGACATGCAATATTAAAAATAAT [TGCATGCA_site174],7.83 ± 0.67
7,AACAGATATGAATAGAAAAAAAAAAATGGCCCATAT [TGCATGCA_negctrl_site443],7.42 ± 0.74
8,CATACATACATACATACATGCATACATACATACATA [TGCATGCA_site218],8.95 ± 0.73
9,CATAATTTAAAAAAGGTGCAAAATGGATAATATATA [GTGCAC_site9657],11.1 ± 0.57
10,TTTTTTTTCATTTTATGTACACATAATTTAATATAT [XGTACX_site5768],8.16 ± 0.45
11,ATATATATATATATATGTACATATGTTTGTTTCCGC [XGTACX_site5167],9.44 ± 0.62
12,ATATACATATATATATGTACTTATTTATTTATTTAT [XGTACX_site2532],7.72 ± 0.4
13,AAAAAGTGACTCCTTACACACTTTACATAATTTAGG [CACACA_site8176],7.68 ± 0.62
14,GCAATTTTTTTTAAGAGTACTAATATATTATAGTGG [XGTACX_site7316],7.83 ± 0.16
15,TTTTTTTAATAGTGTGCACACAATATACAGAAAAAA [CACACA_site8399],10.1 ± 0.11
16,ATATATATATATATATGTACACATAAAAAGAAAGAA [XGTACX_site1603],9.56 ± 0.67
17,AACATTATATATTGCAGTACTCCCATATGTTGATAA [XGTACX_site3119],9.06 ± 0.11
18,TATATACCTATATACACACACATATATTATAGATAT [CACACA_site6266],7.78 ± 0.44
19,TTTAGTTGTGAGAATTGTACATATTTTCCTTTTACC [XGTACX_site7291],7.88 ± 0.35

row,Sequence,gcPBM binding intensity (ln)
1,TATATATATGAACAATGTACGTATAATATTTTTATT [XGTACX_site7561],7.72 ± 0.57
2,GATCTATACTATAATACACACATTTGATGAATGTAA [CACACA_site6163],7.87 ± 0.42
3,AAAAAAATTAAAAATTAAAATTAAAAATAATATATA [GTGCAC_negctrl_site466],6.95 ± 0.61
4,AATGTATAAATCCATACACACATAAATTTTAATAAT [CACACA_site2363],7.59 ± 0.57
5,TTCATAAAATGTGTCTGTACGTAAATGTATTACACT [XGTACX_site3179],7.78 ± 0.5
6,CTGTCTGCAGATATGGTGCATTTGTAAGATCTTACA [GTGCAC_site9870],10.8 ± 0.42
7,TTTATATTTATGATGGGTACACAAAATTTTACCCAT [XGTACX_site1504],7.88 ± 0.16
8,TAATTTCTTTAGGGGGTGCTTTTATAGTTTTTATTA,10.21 ± 0.035
9,ATTATGTGTCCACATGTAAGCTATCTTACTTATATA [CACACA_negctrl_site1227],7.87 ± 0.49
10,ATAGTTACACAATGGTGTACAAGTCAATATATTTCT [XGTACX_site4614],7.95 ± 0.33
11,TACAAAAAAATAAAAAAAATTAAATAAATAAATATA [CACACA_negctrl_site45],7.12 ± 0.59
12,CATATTTGTGGACACACACACATATTTATATATATA [CACACA_site5887],8.47 ± 0.42
13,ACTAAAAAATATATATGTACATAATAATATATTATT [XGTACX_site1260],7.88 ± 0.36
14,ATTTATACTTATGTATGTACATATATACATATGTAT [XGTACX_site3979],7.58 ± 0.41
15,TATCCTTATATTTGCACACACACACTAGAAAATGAA [CACACA_site4714],9.92 ± 0.27
16,AAAAAAAAAAAAAAAAAAAACGAAAAACATCAAAGA [TGCATGCA_negctrl_site78],9.22 ± 0.26
17,ATAATAAAATAACTAGTGCATATTCAAAGGATTCAG,9.67 ± 0.057
18,ATATATATTTAACAATGTACTTATTCAGAGAATAAT [XGTACX_site574],7.58 ± 0.45
19,AAAATATTTTTATAATGTACATATAGTTGTATTTGT [XGTACX_site8724],7.95 ± 0.5

row,Sequence,gcPBM binding intensity (ln)
1,ATTTTTATTCAGTTCACACACGCTTTAATATTATAT [CACACA_site3465],8.3 ± 0.58
2,CCCTTAATATAAAGCACACATATATATAATATATAT [CACACA_site4439],10.2 ± 0.46
3,AAGTTGAAATAATGTGCACACATTTTTTTTTTTTTT [CACACA_site3368],9.38 ± 0.61
4,ATTAATAAAAAATTTTAAAAAATAAATAAAATAAAA [TGCATGCA_negctrl_site113],7.58 ± 0.42
5,ATAATAAATAAAATAACACACATATATAAATATATA [CACACA_site170],7.54 ± 0.3
6,TAATTATATATATACACACACATACAGACAAATAAA [CACACA_site3412],8.15 ± 0.56
7,GAAATTTGTTATTGCACACAAATTTTTCTTTTTTTA [CACACA_site2339],10.14 ± 0.028
8,TACCATATTTCTTCAAGTACGCATTATGTTAAAAAG [XGTACX_site345],7.95 ± 0.32
9,TACATATATTTTTATACATGCATAACTTAGGACTTT [TGCATGCA_site113],7.62 ± 0.58
10,ATATTTATATATATCATACACACTAATATGTATATT [CACACA_site3409],7.52 ± 0.57
11,TCCTTTTTGAAATGTTGTACTTTTTTTATCTTTCAT [XGTACX_site953],7.82 ± 0.65
12,ATATATATATATAATTGTACATATAATATAATATTA [XGTACX_site5216],9.1 ± 0.42
13,ATATATATTATATATAGTACTTTTTTGCGCAAATAT [XGTACX_site6849],8.08 ± 0.44
14,AACACATGCTTGGTCACACACGTATGCATATTTAAA [CACACA_site5206],8.04 ± 0.63
15,AATATGTTATAAATATGTTATAAATAATAAATAAAT [GTGCAC_negctrl_site135],7.74 ± 0.62
16,TATTTTTTTTTTTTTTTTTTTTTAAAACATATCAAT [CACACA_negctrl_site925],7.58 ± 0.46
17,ATTTTTTTTTTTTTATGTACATATAGGTGCAAATCA [XGTACX_site6748],11.3 ± 1
18,ACAATGTCATTTGCTAGTACGCATATTGGTTGTAAA [XGTACX_site8924],7.76 ± 0.24
